Entries after “also recorded” stand apart in the source; their conditions may differ.
Legend:
293-ACE2 cells = type: cell-based; settings: spike transfected 293-ACE2 cells, 24 hours
spike cleavage at S1/S2 = type: cell-based, SARS-CoV-2

B1: 6.30-IgG1: ACE-2-RBD neutralizing antibody (Rogers et al., 2020); SEQ ID NOs: 20 and 23 (protein)
light: DIQMTQSPSSLSASVGDRVTITCRASQNISSYLNWYQQEAGKAPKLLIYAASSLQSGVPSRFSGSGSGTDFTLTISSLQPEDFATYYCQQSYSTPRTFGQGTKVDIKRTVAAPSVFIFPPSDEQLKSGTASVVCLLNNFYPREAKVQWKVDNALQSGNSQESVTEQDSKDSTYSLSSTLTLSKADYEKHKVYACEVTHQGLSSPVTKSFNRGEC
heavy: QVQLVQSGAEVKKPGSSVKVSCKASGGTFSIYAITWVRQAPGQGLEWMGGIIPIIGTANYAQKFQGRVTITADKSTSTAYMELSSLRSEDTAVYYCARDFRYCSSTRCYFWFDPWGQGTLVTVSSASTKGPSVFPLAPSSKSTSGGTAALGCLVKDYFPEPVTVSWNSGALTSGVHTFPAVLQSSGLYSLSSVVTVPSSSLGTQTYICNVNHKPSNTKVDKKVEPKSCDKTHTCPPCPAPEAAGGPSVFLFPPKPKDTLMISRTPEVTCVVVDVSHEDPEVKFNWYVDGVEVHNAKTKPREEQYNSTYRVVSVLTVLHQDWLNGKEYKCKVSNKALPAPIEKTISKAKGQPREPQVYTLPPSREEMTKNQVSLTCLVKGFYPSDIAVEWESNGQPENNYKTTPPVLDSDGSFFLYSKLTVDKSRWQQGNVFSCSVMHEALHNHYTQKSLSLSLGK
syncytia blockade (293-ACE2 cells): significantly more effective; also recorded: significantly effective | inhibition of spike cleavage at S1/S2 (spike cleavage at S1/S2): non-inhibitory
